Whole data set: some 1,800 sequences, median “median log2 fold change of GCK-ALFA target abundance (FLAG IP / Myc IP barcode read proportion)” near 0.14, cut for the lowest 2% near -0.84. The list shows a part of the results.
T1: TRAF2, Q12933
T1 chain: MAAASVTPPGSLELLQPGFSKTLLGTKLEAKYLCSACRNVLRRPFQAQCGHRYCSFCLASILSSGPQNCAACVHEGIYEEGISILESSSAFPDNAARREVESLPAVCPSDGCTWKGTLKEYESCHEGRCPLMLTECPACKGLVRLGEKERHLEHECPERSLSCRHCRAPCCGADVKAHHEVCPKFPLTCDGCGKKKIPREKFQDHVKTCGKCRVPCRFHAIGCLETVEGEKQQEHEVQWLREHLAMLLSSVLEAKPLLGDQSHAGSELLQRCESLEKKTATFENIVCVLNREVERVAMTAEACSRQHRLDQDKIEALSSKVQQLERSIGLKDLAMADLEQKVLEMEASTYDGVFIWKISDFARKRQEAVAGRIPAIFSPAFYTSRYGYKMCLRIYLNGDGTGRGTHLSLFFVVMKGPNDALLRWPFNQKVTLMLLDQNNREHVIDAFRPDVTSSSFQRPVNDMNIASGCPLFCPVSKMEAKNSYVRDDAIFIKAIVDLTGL

B1: traf2_out_6_169_2489 (protein)
chain: SMKEKLEKEAKEKYERAKELLEIAETIYNQVINNKKYDKIETYIEALENILSATKRQYDLAIEAYKKLGKEEEAKKLEKEKEEVTEKIKKMIEEIKELKK
B2: traf2_out_20_3_2076 (protein)
chain: KELLEELEKELDKAIKLLKEAAAKADKETAKKLKELIEELKKSRELSISDRLVKVSEVRRKVRELAEKAKAAGKKELAALLEEAADELNRAAQLLYKILE
B3: traf2_out_13_95_1068 (protein)
chain: SKETAKKINELADKAEEEVLALLDAAQAALADDPEAVAALEAAREAARTRGIRAAIHILREAQAAHPEHADEFAALIAELEAIRRELGRKVAEIIKEEKE
B4: traf2_out_6_166_2468 (protein)
chain: EEELLKRIREIVEELGKYEPEIVIEAFEILAKERSDERATIARQAATGVRQAQKAGLDVTTILSAFADGLLALGVPVETILELFEEALKIAEKLAKEKEK
B5: traf2_out_18_3_1943 (protein)
chain: KEEELKKISEEIDKIIDEVTARAREELDRLLAEHPELAAEAEALRADLDAGAGPFGILDELARLWERAGAADEAAAARAFLREKRKKLQELVDKYEELRK
B6: traf2_out_14_17_1293 (protein)
chain: KIIERLEEIAKRAKELAEKYPELALELGRLARLAESTLVLAEMYEEDPRYKPELLQGLRNLAREAKEVAEKAKPISEEAVKRLEEMAERAEEILEEVEEE
B7: traf2_out_5_192_2336 (protein)
chain: SAEEEARERRLRERAEEILREAEERAKKISERTGLDYATVLATLAFSRVVARAESAEEARLMLDYIVEMITARDPSWAPIAEGEKAAALRAIDAIEAAEP
B8: traf2_out_15_180_1317 (protein)
chain: MTEEELEKRIELANEVADKVQDKLDALLAAHPSLTPEEKAALRELARSITTLLFNGEEAEAEAALARAEARLSPEAAAVARELYEFAKKLVEEAKKKLAE
B9: traf2_out_12_187_959 (protein)
chain: SNEDELLEAAKAGVKQALKELEKYAPKDPRFKELLKKLKELEELMKKVPEIASDALVAASAILRAIRLFEAGLPQEEIDAAYEEAEKTLEEALAEAEKLL
B10: traf2_out_20_3_2221 (protein)
chain: DELKEEVRKELEAIEKLLEQAKPLLPAEDYARLKELLEKAKKALETDLTDALVYLSELRREALALAQRAAAAGNAELAALLEEMAERANRAAGLVLKMIE
B11: traf2_out_17_162_1506 (protein)
chain: SEIEELEKEIEEELEELEKELERLEEKMKDLENLSKEEITDLLVEASELRRRALELAELVEEHKELLGEERAEELRKRAEEIAERLQRIANKAYEELLKK
B12: traf2_out_13_95_1148 (protein)
chain: SAETAAKIMAVADEMVDKVIAILEELLAKAKEKGVDTAPIQEALDLAKNRSINEAIHKLKELAKKYPEMKEELEAAIEKIEEIRREAGRRVAEIIKEEKA
B13: traf2_out_13_95_1104 (protein)
chain: SAETAEKIMKIADEMLDKVEKILEELLKIAKEKGKLEEEIKEALHLARYQSINEAIHKLKELAKKYPEFKEELEAAIKEIEALKKEAGRKVAEILKEEKK
B14: traf2_out_13_95_1071 (protein)
chain: TRELAEKINEIADEAEARALALLAAAKAELADDPEAVAVLDEAARLAETHGIRAAIHLLREAKAARPEHAAAFDALIAELEAIRREAGRRVAALIKEAEE
B15: traf2_out_14_166_1284 (protein)
chain: MSPEEIERIRKIVDELEPLTEKAVEEAERILEENRERLSPEQLARLEELLEIARRNIGSSAINALLEMAEIFEEAGLEEAAERFRRLAEELEKKLSELNK
B16: traf2_out_11_155_684 (protein)
chain: EKKQEINNELVNKMSEIADRAKAEARAIADAAAAAHPEAKAALDATLAATAGHGISTFLGSMAATFEALGLDDEAARVRALLAQAQKEMNAAVKEAEAKL
B17: traf2_out_16_104_1377 (protein)
chain: DAARRAAFQAAIARLEEIAERANRLANEIYKLMETASEEEKEKLSDALVKVSELRREALAAAEAARAALAAGGDLAAVEAALAKLEKRLEELEKEVKELK
B18: traf2_out_20_3_2058 (protein)
chain: SELDEEIEKKTKELEKKLAELAKLLPPEEAAELAKAWAEVKKAAKEGLEEFLIAVSKLRRLLLELSEEARARGDEKTAKLLEEAAEIAQEIAHLIYKKIE
B19: traf2_out_6_156_2442 (protein)
chain: TLDAILAETKKKVEEEIKKLAESSEEEHIKWINRIAGTIYRALQQARAAGASLAELKAFAEEVNKVIEEEAKKYGLPESVRNLLLSSVNAVFDVALAAAA
B20: traf2_out_18_117_1782 (protein)
chain: SRREEIIKRLEEIAEETGRAASELGKLMEENWEKLTPEEKSEAMDVLADLSAVRREALLLIHEIETEDVPVEEAEKRLEELEKRARAALAAAAEVIARIK
B21: traf2_out_18_117_1787 (protein)
chain: MEREEIIERLKEIAEETGRAASELGKLVLEKWEELTPEEKSEAFDVLADLSEVRREAQLLIIEIEEKNLPIEEAKKRLEELEKRAEEALKRAEEKIKRIK
B22: traf2_out_20_3_2179 (protein)
chain: EELEEELEEELEEALELIKEAAKLADEETAKKLEELAERLKESRELSYEDRLVELSEIRRELLELAEAAKAAGKEELAAVLEEAAEELNEAMNLVYEIIE
B23: traf2_out_11_155_770 (protein)
chain: EEKLKINQELVDKNMEIRDEAIEKIRELILNDESLTEEEKKELLEILEKNKSLGLRTMAESLIRKALELGKEELAEKIREILEEAQKKMSEAAIEAEKKI
B24: traf2_out_20_3_2102 (protein)
chain: EELEKELEKEIEEALKLLEEAAKLADPETAARLKELAKRVEESRSLSPSDRLVELSEVRREVLALAQEAKAAGREELAAVLEEAAEELNEAMNLLYKIIE
B25: traf2_out_17_178_1697 (protein)
chain: SKEEIRKKISELTDKLIDLTDEYGTKLIAALKAEGVLTPEELARLEAALASGSNRTFLETAKEIIPKSAASAETKALLEEFEKEYKEISKKIAEAYEKYE
B26: traf2_out_13_95_1089 (protein)
chain: SKEVAEKIMEIADEMLEKSEKLLEELLKKAKEKGKLVEEVEEALRLARYRSINEAIALLEELAKKYPEFKEELEETIKKLKEIKREAGKKVAEILKKEEE
B27: traf2_out_18_167_1854 (protein)
chain: EEERRRRRRELSDRLVRLSEVKRAARALIQALRTDRAAAPAELARLRAAAAEVPELQPLVAAIEAALAAGDWAGALAGAEALIAEAQRLMNEAIRAYEKE
B28: traf2_out_19_16_1988 (protein)
chain: SEEEAKKLKEKMNEHLEKALKLAEEAVKNLEKLSREELMDKLVEISELVRKAKEYLQKYLELAKDKEEERKKVTEEYDEKLDKIQRLMTVIVKRIEELLK
B29: traf2_out_17_162_1641 (protein)
chain: SAAEELRKRLLEELERLEKELKELEEKSKKIDEYTKEELSDLIVEASEARRRARELIEEVDRNRSLLDPEEYEELKKRLEEIAERLNRIAQKFYDKYLEL

Biological target: T1, TRAF2, Q12933
Test: median log2 fold change of GCK-ALFA target abundance (FLAG IP / Myc IP barcode read proportion) (log2 ratio); each designed protein is fused to an ALFA-tag nanobody in HEK293 cells to bring the named protein to FLAG-tagged glucokinase (GCK); Myc marks an untargeted standard; higher = target protein stabilised (more abundant)
Conditions: target protein: 3xFLAG-MCP-GCK-ALFA reporter; HEK293 landing pad (RPLP)
Procedure, shortened: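 Sequencing of reverse-transcribed, amplified circular RNA barcodes from anti-FLAG and anti-Myc immunoprecipitates provided the readout for an ALFA-nanobody-fused binder library recombined into HEK293 landing-pad cells. Those cells were induced with 2 μg mL^−1 doxycycline, transfected with a plasmid expressing a FLAG-tagged target and a Myc-tagged standard, and lysed after 48 h. Target abundance is the per-binder median log2 ratio of FLAG to Myc barcode read proportions. Only barcodes at a proportion of ≥10^−7 in both replicates and binders with ≥3 barcodes per replicate were kept, with a 10^−6 pseudocount added before the two replicates were pooled.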

| Binder | median log2 fold change |
| --- | --- |
| B1 | -0.103 |
| B2 | 0.0533 |
| B3 | -0.0253 |
| B4 | 0.166 |
| B5 | 0.0947 |
| B6 | 0.25 |
| B7 | -1.01 |
| B8 | 0.323 |
| B9 | 0.26 |
| B10 | -0.049 |
| B11 | 0.119 |
| B12 | 0.0625 |
| B13 | -0.841 |
| B14 | -0.273 |
| B15 | 0.323 |
| B16 | 0.25 |
| B17 | 0.304 |
| B18 | 0.144 |
| B19 | -0.216 |
| B20 | 0.121 |
| B21 | 0.101 |
| B22 | -0.145 |
| B23 | 0.295 |
| B24 | 0.282 |
| B25 | 0.348 |
| B26 | -0.749 |
| B27 | -0.377 |
| B28 | -0.0165 |
| B29 | 0.177 |

Reference: the supplement of paper PMC12632987
